Laboratory results from the supplement of paper PMC3724861.
Some of the results follow.

Tested on: T1, Caupolican (Caup) homeodomain DNA-binding domain
T1 sequence: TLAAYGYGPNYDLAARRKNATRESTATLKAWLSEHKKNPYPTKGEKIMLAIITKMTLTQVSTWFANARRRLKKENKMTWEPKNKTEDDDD
Assay: PBM E-score (8-mer, recovered from the published 9-mer minima) (E-score (dimensionless, -0.5 to 0.5)); Drosophila protein; higher = stronger relative binding preference, active = 0.31 or more
Procedure, shortened: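 Caup's homeodomain DNA-binding domain (residues 214-303) was produced by in vitro transcription and translation and applied at 100 nM to custom-designed protein binding microarrays. Each value is an enrichment score giving relative binding preference for a short DNA word; higher means stronger. Published 9-mer scores were the minimum of their two constituent 8-mer scores, and the 8-mer values were recovered from those minima. A cutoff of 0.31 marks candidate binding sequences.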

PBM E-score, ≥ 0.04:
TCGTGGAA

PBM E-score, ≥ 0.105:
ACAGAGCA

PBM E-score, inactive:
TAGAACAA 0.226
CACGGGCC -0.237
CGAGGAGC -0.158
GCAACTAC 0.0804
TCCAGCGA -0.0857
CGCCCGCG -0.302
CGGGTACA 0.19
ACTCCTAT 0.0533
CACCGTAG -0.0233
CCTTTCGC -0.167
CGTTGGTC -0.0452
AGTGCGGC -0.171
AATTTTAG -3e-05
CCATCGCA -0.0771
GGCCTATA -0.138
CTACTCTC -0.105
AGAAATTG 0.0427
CCATCTCA -0.0304
CAAGTCGC -0.0579
ACGAGCAC 0.0699
ACCTTCAA 0.0209
AAGCCTTC -0.0638
CTGGACTC -0.124
CGGTGAAG -0.203
GTATCATA 0.212
CAGATCAA -0.0195
CCATCAAA -0.0357
ATAGCCCC -0.231
GCCAAGCA -0.0756
GATACGGC -0.174
TAATCTAA 0.116
CCAGAAGC -0.184
AAATAACA 0.276
GCACACGC -0.0248
CTAATACA 0.258
AAGACCCA -0.186
CCTTCCCA -0.182
CGAGATTA 0.0275
AAGAAGCC -0.109
AGACTCTC -0.0666
CCATTAAC 0.182
GAGTAATA 0.167
ACATTACT 0.227
ATAACTGA 0.0981
TGGCACAA 0.0426
GTTGAAAC 0.00946
GGGCGGAC -0.278
TACCTAAA 0.052
CTGTGCGC -0.117
ATAGTAGG -0.0326
ATATGTGA 0.25
CCCTCTCC -0.238
CCGACAAG 0.206
CCAGTGGA -0.117
CGTTTTGA 0.0518
AGTTGAAA 0.0459
CATCTGCG -0.00421
CCAAGAGA -0.016
CTCCGGGA -0.206
AGATGCGA 0.0201
TCTACAGA 0.0692
ATGAGCGA -0.0133
AGCAAACG -0.0682
GTTTAGCA -0.0443
ATTTAACC 0.049
GGTTCGGA -0.117
CACGTTGA 0.0907
GACCCGGC -0.195
GCGGCACA -0.156
AAGCGAGA -0.166
ACCTCGGA -0.0144
AACTCAAC 0.0413
GCCAGGCC -0.252
GTCATCAA 0.116
AATAGCAC -0.00978
GCGTAGTA 0.0285
CAAATGAC 0.0833
CTGGCACA -0.0676
ATTTTCGC -0.00282
ACCTAAGG -0.135
ATGGGATG -0.0623
AGTCCCGA -0.126
CTCGCTGC -0.13
CTAGCCGA -0.112
GCGCCTCC -0.203
TAACTCCA -0.0511
CTTATGGC -0.172
GTCCAACA 0.147
AAGACCGT -0.0429
ACGCTGAA -0.0845
GGGCTTTA -0.186
CACTTGTC 0.271
ACGTCCGG -0.174
AGCATCAA 0.0544
AACGTCAT 0.0145
AGTTAGGC -0.031
ATTTGCAA 0.0161
AGTTCGGA -0.0352
TGTCTTAA 0.168
ATCACTAC 0.0733
AACACCGC 0.099
AAAATCAA 0.0838
CCACCTGA -0.142
ACGGCCTG -0.128
GGAACGCC -0.146
CAGCGATC -0.0487
GCAGCTCA -0.171
ACTGCGTG -0.0552
TAAAGAGA 0.00345
CAGGCGGA -0.0895
GTCACTCA 0.0346
AATGTAGC 0.0881
ACATACTC 0.219
ACGGCAGC -0.091
CGTAGTGA -0.0452
AGATAAAT 0.184
GACACCAC 0.0942
GTTTCAAA 0.0987
AGGAGGGA -0.205
AGGTCGCA -0.0788
GTCCGGAA -0.0346
TGCAGTAA 0.0534
ACCGTGGG -0.197
CATCGTGG -0.124
ATTTTGCC 0.0694
ATTGGGTG 0.061
CACGCACG -0.108
ACTCATTA 0.0828
GTCCTCGA -0.0293
ATATTGCG 0.0521
AATATCTC 0.071
CAACGCGC -0.0756
ACGGTGAT 0.12
AGCAACAA 0.182
GATTGGAC 0.0616
ATCCGTCG -0.00011
TAATCCCA 0.0674
CCTAGAAC -0.0143
AAAACCAG 0.101
ATGGAATA 0.101
CCTATCTA 0.0364
AATACCCC -0.224
ATTTGATC 0.0561
CGCCTCAG -0.27
AGTTGGAG -0.129
CCACTAAA -0.0916
ACAACGCA 0.206
ACCCATTG -0.0278
ACGTTGCC -0.149
GCAACCAC 0.0429
GAACTGAC 0.00399
CTGGTCTC -0.124
CATTAGAC -0.0721
AGAGCGAA -0.0335
GCTCATGA -0.00161
GAGGGGTA -0.164
AGTGCCAA 0.00364
GGATGGCC -0.189
CTGAGACC -0.161
ACTGGCAC -0.125
GATCTCAA -0.0485
AGCGAGTA 0.00306
ATACGCCG -0.111
ATACCTAA 0.136
TATAAATA 0.183
GGGTTTAC -0.0433
AACGGGCG -0.183
GGTTACAA 0.303
AACCTGCA 0.0156
AAAGCACA 0.076
GGATAAAC 0.113
AAACTAGC -0.0478
GAGAATAA 0.052
CGCAGGTC -0.118
CCCCGTGA -0.201
AAGAAATC -0.0447
AAGAAAGC -0.122
AATGGGGG -0.235
AGAATGGC -0.0659
ACGGTAAG -0.0685
GCGGGTAC 0.0197
CAACCGAA -0.0219
AACGAAAT 0.0142
AAGGGACC -0.146
TATCCTCA -0.0752
GCTAGTAC 0.0881
CCAGGAAG -0.1
CCTCATAG -0.113
AACTGTAT 0.138
ACTAGCCC -0.114
AGAGGCAG -0.152
AGGGAGTG -0.199
AGCACGTG 0.082
AATAGTGA 0.0846
TCATCGCA 0.065
CAGAGTAA 0.00794
GTTCCTTA -0.01
ACGGGAAG -0.0385
CAGAGATA 0.084
CTGGCTCC -0.218
AGAGCCTC -0.17
CGGCTACC -0.112
AATGCGTC -0.135
TGACGAAA 0.0132
GATCGCGA -0.0152
TAACGCGA -0.0146
GCGCTCTA -0.198
CCGGTAAG -0.0973

PBM E-score, ≥ 0.0498:
ACGTCAGA

PBM E-score, ≥ 0.134:
AGTTCGAT

PBM E-score, ≥ 0.0502:
AGGCAACT

PBM E-score, ≥ 0.0697:
ACAGCCAT

PBM E-score, ≥ 0.0431:
ATACGCTC

PBM E-score, active:
AACAACTA ≥ 0.319
TGATAACA 0.322
AATACATA 0.362
ACAACACA ≥ 0.395
CTGTACAA 0.335

PBM E-score, ≥ 0.0663:
AGGTTCAA

PBM E-score, ≥ 0.129:
ACAGAGAT

PBM E-score, ≥ -0.0145:
TACGGAGA

PBM E-score, ≥ 0.0996:
GCAATCTA

PBM E-score, ≥ 0.0301:
ACTAGGCA
